Key:
[1] = biological target: Voltage-gated inwardly rectifying potassium channel KCNH2 (Homo sapiens, UniProt Q12809); conditions: hek293
Cytochrome P450 1A2 = biological target: T1, Cytochrome P450 1A2 (Homo sapiens, UniProt P05177); conditions: bti-tn-5b1-4
T1 sequence (P05177 whole entry): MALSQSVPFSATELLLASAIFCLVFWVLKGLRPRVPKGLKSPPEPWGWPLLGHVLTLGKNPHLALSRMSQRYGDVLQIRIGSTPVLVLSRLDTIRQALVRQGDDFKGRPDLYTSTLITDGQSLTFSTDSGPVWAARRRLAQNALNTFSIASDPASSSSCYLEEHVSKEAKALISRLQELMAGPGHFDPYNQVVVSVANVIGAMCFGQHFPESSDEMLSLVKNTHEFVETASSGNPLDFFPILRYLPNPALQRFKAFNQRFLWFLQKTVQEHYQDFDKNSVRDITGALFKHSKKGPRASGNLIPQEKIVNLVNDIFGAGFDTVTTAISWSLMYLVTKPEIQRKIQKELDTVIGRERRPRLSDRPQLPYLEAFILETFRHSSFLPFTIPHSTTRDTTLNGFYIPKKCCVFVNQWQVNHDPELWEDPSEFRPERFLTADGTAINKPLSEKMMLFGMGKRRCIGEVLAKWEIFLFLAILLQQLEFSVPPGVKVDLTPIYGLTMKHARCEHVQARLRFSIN

Cytochrome P450 2E1 = Cytochrome P450 2E1 (Homo sapiens, UniProt P05181); conditions: bti-tn-5b1-4
Cytochrome P450 2C9 = Cytochrome P450 2C9 (Homo sapiens, UniProt P11712); conditions: bti-tn-5b1-4
Cytochrome P450 2A6 = biological target: T2, Cytochrome P450 2A6 (Homo sapiens, UniProt P11509); conditions: bti-tn-5b1-4
T2 sequence (P11509 whole entry): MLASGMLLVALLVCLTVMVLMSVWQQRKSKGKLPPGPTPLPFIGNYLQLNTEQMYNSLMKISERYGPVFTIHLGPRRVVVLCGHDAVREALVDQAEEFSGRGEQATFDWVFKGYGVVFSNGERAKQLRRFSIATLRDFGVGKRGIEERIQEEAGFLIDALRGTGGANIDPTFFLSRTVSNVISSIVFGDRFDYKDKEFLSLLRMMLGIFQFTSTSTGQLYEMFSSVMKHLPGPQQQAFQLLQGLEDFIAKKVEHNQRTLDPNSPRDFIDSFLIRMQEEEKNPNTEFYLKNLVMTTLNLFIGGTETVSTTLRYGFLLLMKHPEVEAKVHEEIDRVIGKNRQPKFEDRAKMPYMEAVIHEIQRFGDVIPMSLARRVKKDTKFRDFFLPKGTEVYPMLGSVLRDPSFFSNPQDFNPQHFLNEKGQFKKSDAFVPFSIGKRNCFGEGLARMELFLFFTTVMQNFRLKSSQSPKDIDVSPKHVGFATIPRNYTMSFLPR

Cytochrome P450 3A4 = Cytochrome P450 3A4 (Homo sapiens, UniProt P08684); conditions: bti-tn-5b1-4
Cytochrome P450 2D6 = Cytochrome P450 2D6 (Homo sapiens, UniProt P10635); conditions: bti-tn-5b1-4
Cytochrome P450 2C19 = Cytochrome P450 2C19 (Homo sapiens, UniProt P33261); conditions: bti-tn-5b1-4
Note: in other assays of this panel Not Active means under 50% inhibition at 10 µM.

Sequence of Cytochrome P450 2D6 (P10635 whole entry): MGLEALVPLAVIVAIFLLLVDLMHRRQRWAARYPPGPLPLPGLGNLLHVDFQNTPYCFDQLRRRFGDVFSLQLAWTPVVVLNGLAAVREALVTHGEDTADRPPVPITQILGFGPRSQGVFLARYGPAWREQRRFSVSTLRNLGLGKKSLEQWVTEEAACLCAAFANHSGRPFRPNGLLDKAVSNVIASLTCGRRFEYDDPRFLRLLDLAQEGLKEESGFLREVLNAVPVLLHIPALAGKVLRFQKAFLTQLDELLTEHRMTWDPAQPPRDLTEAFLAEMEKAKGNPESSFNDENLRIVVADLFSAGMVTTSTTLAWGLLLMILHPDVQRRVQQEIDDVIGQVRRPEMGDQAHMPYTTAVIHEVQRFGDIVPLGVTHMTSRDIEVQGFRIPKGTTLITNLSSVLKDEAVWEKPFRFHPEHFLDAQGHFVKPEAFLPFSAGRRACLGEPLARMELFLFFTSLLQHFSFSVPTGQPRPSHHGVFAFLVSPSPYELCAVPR
Sequence of Cytochrome P450 2C19 (P33261 whole entry): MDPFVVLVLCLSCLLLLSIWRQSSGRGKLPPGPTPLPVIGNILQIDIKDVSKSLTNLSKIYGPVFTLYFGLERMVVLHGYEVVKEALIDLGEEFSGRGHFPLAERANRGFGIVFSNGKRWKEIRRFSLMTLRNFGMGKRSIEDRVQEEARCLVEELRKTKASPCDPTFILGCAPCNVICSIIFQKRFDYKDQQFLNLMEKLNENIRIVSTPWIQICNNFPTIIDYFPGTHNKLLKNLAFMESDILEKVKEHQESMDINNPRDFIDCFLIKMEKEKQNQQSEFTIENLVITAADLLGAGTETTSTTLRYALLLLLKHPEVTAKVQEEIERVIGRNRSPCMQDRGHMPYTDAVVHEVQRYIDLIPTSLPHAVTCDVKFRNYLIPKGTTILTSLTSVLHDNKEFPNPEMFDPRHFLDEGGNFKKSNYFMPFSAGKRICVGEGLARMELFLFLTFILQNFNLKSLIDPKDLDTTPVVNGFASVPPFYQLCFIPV
Sequence of Voltage-gated inwardly rectifying potassium channel KCNH2 (Q12809 whole entry): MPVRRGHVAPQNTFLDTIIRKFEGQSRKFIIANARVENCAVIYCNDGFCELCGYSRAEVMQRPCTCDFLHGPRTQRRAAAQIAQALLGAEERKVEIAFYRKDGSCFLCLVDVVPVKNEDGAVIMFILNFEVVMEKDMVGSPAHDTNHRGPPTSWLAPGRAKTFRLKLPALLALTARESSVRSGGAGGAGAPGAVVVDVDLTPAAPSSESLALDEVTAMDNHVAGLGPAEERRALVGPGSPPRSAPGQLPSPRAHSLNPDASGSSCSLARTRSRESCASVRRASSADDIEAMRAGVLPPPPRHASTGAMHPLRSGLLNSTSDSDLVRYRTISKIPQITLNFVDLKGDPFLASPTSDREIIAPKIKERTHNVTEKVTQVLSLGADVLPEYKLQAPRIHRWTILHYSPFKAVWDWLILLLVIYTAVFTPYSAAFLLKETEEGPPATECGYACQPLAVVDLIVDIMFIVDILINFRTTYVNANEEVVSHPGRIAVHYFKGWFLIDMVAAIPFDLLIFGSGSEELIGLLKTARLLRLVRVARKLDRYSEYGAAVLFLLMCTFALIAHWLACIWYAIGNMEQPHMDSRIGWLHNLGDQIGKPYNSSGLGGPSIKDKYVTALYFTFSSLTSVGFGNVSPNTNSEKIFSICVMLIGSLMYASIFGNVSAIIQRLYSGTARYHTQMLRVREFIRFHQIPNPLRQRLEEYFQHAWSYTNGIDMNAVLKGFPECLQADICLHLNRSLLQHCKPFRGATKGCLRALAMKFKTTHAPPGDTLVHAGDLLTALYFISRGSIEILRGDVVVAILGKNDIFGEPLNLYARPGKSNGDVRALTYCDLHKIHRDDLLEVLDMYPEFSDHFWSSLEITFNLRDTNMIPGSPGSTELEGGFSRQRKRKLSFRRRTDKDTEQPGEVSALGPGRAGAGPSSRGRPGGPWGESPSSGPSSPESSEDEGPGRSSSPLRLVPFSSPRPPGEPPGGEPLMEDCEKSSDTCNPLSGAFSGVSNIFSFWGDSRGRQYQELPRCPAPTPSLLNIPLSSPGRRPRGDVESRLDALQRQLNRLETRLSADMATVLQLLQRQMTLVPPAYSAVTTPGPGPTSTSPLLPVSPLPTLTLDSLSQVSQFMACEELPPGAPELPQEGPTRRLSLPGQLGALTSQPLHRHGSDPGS
Sequence of Cytochrome P450 2E1 (P05181 whole entry): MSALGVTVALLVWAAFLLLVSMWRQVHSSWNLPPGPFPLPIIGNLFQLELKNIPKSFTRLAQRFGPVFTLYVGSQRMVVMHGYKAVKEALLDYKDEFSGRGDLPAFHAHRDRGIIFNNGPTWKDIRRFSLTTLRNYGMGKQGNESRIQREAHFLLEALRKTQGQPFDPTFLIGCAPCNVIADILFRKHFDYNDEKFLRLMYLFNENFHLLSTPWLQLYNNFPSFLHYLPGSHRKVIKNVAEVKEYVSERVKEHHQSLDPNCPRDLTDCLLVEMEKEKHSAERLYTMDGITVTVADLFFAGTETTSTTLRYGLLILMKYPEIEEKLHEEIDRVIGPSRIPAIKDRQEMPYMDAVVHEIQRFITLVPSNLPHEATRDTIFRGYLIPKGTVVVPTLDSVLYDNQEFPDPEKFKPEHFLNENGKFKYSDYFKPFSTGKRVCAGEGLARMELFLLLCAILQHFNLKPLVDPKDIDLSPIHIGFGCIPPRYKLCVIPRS
Sequence of Cytochrome P450 3A4 (P08684 whole entry): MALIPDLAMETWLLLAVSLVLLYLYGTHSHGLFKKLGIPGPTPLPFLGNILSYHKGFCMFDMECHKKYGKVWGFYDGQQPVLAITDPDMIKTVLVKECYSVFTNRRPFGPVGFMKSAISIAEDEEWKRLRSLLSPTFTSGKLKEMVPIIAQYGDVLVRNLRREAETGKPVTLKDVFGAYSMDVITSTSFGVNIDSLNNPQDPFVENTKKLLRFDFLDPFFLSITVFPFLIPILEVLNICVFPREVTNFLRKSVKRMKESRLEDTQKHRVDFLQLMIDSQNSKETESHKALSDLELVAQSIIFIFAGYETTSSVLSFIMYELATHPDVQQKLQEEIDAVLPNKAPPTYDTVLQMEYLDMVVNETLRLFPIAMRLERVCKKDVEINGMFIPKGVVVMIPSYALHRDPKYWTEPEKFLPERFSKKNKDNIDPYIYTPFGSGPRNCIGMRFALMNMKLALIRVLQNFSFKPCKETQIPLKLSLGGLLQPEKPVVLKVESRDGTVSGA
Sequence of Cytochrome P450 2C9 (P11712 whole entry): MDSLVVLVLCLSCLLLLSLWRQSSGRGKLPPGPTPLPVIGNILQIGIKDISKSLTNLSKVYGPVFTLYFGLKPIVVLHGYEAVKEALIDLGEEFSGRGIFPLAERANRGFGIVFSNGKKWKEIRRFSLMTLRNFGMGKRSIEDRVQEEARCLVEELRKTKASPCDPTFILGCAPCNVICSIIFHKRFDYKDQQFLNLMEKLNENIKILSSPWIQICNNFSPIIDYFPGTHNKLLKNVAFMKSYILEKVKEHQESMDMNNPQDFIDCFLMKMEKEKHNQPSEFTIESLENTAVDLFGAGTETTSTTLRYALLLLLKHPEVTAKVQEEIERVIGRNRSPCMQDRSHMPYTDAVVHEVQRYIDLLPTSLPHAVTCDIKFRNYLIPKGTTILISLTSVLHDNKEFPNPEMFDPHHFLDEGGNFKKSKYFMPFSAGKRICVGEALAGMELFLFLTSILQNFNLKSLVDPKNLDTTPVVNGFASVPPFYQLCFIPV

Nc1nc2ccc(OC(F)(F)F)cc2s1 [RILUZOLE]
Not Active: IC50 [1] | Ki [1] | IC50 (Cytochrome P450 1A2) | Ki (Cytochrome P450 1A2) | IC50 (Cytochrome P450 2E1) | Ki (Cytochrome P450 2E1) | IC50 (Cytochrome P450 2C9) | Ki (Cytochrome P450 2C9) | IC50 (Cytochrome P450 2A6) | Ki (Cytochrome P450 2A6) | IC50 (Cytochrome P450 3A4) | Ki (Cytochrome P450 3A4) | IC50 (Cytochrome P450 2D6) | Ki (Cytochrome P450 2D6) | IC50 (Cytochrome P450 2C19) | Ki (Cytochrome P450 2C19)

Source: ChEMBL document CHEMBL1909046, “DrugMatrix in vitro pharmacology data”
